Source: article PMC9163754
Where a chain is given by its changes, count along the chain named. No constants are given. Whether binding was seen depends on the method and setting. Binding seen in cells or lysates may run through a third protein. Some entries that bind do so weakly or less than the wild type. For part of these data: Tags and fused reporters may be left off the sequences shown.

Chains of the proteins cited; added tags and fusions are not shown.
UniProt Q00534: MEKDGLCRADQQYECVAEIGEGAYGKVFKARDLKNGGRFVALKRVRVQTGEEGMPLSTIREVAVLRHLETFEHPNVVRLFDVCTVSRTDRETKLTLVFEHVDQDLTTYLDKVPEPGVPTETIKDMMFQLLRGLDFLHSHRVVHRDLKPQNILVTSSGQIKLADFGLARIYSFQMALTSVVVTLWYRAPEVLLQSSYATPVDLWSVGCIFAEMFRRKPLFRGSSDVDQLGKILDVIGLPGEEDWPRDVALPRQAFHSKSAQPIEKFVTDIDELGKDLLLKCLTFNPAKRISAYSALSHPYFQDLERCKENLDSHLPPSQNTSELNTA
UniProt Q64261: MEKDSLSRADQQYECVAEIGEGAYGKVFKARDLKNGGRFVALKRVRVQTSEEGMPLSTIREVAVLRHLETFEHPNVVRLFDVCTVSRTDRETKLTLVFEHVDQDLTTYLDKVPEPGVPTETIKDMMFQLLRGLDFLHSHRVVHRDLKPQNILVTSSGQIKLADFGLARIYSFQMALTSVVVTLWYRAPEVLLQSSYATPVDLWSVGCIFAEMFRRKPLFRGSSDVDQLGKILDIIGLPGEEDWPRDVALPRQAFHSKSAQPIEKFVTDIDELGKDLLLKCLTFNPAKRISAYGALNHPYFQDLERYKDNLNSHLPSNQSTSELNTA

Columns and labels:
GFP-FERM-WT = target: T1, GFP-FERM-WT (UniProt P34152); experiment: co-IP; GFP-IP from B16F10 cells transfected for 24 h with GFP-FERM-WT, GFP-FERM-NLM or GFP-FERM-R312A/K313A; immunoblot for endogenous CDH1, CDK4 and CDK6
T1 sequence: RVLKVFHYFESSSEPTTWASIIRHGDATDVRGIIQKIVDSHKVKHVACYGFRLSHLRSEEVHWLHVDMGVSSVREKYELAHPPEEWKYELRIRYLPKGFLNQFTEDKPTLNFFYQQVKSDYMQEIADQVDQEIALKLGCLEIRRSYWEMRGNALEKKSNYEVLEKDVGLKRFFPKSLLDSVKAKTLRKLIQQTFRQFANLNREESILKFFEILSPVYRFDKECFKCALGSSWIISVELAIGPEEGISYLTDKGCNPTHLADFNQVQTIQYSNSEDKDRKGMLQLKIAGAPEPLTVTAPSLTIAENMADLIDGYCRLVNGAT

GFP-FERM-R312A/K313A = target: T2, GFP-FERM-R312A/K313A (UniProt P34152); experiment: as above
T2 sequence: T1 sequence with R278A, K279A

[1] = target: Focal adhesion kinase (FAK) (mouse (endogenous in B16F10)) (UniProt P34152); experiment: co-IP; FAK-IP from B16F10 lysates, endogenous proteins; cells treated with FAK-I (PF-271, 2.5 uM) with or without MG-132 (10 uM) for 6 h; 1% Triton X-100, 50 mM Hepes, 150 mM NaCl buffer, overnight at 4 °C; immunoblot
[2] = target: CDC homolog 1 (CDH1) (mouse (endogenous in B16F10)) (UniProt Q9R1K5); experiment: co-IP; CDH1-IP from B16F10 lysates, endogenous proteins; cells treated with FAK-I with or without MG-132 for 6 h; immunoblot
[3] = target: GFP-FAK (full-length FAK) (UniProt P34152); experiment: co-IP; GFP-IP from HeLa cells transfected with GFP fusion constructs of FAK, treated with FAK-I and MG-132 for 6 h before immunoprecipitation; immunoblot for endogenous CDK4 and CDK6
[4] = target: Focal adhesion kinase (FAK) (mouse (endogenous in B16F10)) (UniProt P34152); experiment: condition: only vehicle-treated cells, without FAK inhibitor; co-IP; FAK-IP from lysates of vehicle-treated B16F10 cells (no FAK inhibitor), endogenous proteins; immunoblot

Row | Substance | binding (GFP-FERM-WT) | binding (GFP-FERM-R312A/K313A) | binding [1] | binding [2] | binding [3] | binding [4]
1 | CDC homolog 1 (CDH1) (from UniProt Q9R1K5 1-493) | binds | binds weakly | binds | – | – | –
2 | Focal adhesion kinase (FAK) (from UniProt P34152 1-1052) | – | – | – | binds | – | –
3 | cyclin-dependent kinase 6 (CDK6) (from UniProt Q00534 1-326) | – | – | – | – | binds | –
4 | cyclin-dependent kinase 6 (CDK6) (from UniProt Q64261 1-326) | binds | binds | binds | – | – | no binding
